PubChem BioAssay AID485281 (National Center for Advancing Translational Sciences (NCATS), 2010)
Out of some 350,000 compounds screened, about 260 (0.074%) were called active. Inconclusive results, whose numbers are uncertain, are shown with a selection of clear calls. Calls come from the whole dose curve; as a rule, active = well fitted inhibition curve with a large enough effect; inconclusive = small, poorly fitted or top-dose-only effect; inactive = no such curve, though single readings can be large or run the other way. Potencies of inconclusive entries are doubtful fits and often do not repeat.

Target: Ferritin light chain (Equus caballus) (UniProt P02791)
UniProt P02791, sequence (P02791 whole entry, looked up): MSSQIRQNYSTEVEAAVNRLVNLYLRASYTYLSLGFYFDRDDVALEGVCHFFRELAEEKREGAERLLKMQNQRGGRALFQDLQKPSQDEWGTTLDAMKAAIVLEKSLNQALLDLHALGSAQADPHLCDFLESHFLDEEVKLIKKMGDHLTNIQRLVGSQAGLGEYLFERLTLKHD
Assay: qHTS Assay for Identification of Novel General Anesthetics; note: nearly all actives have a fitted effect of over 20% in size
Conditions: apoferritin/1-aminoanthracene competitive binding, fluorescence; series mostly up to 77.5 µM
Outline: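 Steps: apoferritin (10 uM) was premixed with half-saturated 1-AMA in PBS, compounds were pin-transferred, plates stood 10 min at room temperature, fluorescence was read at 380/535 nm, and curves were fitted with a Hill equation.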
Potency is the fitted concentration of half-maximal effect; tags give direction and shape of the fitted curve.

Potency, inconclusive:
Cc1nn(-c2ccc(Cl)cc2)c(N)c1C(O)(CSc1nccn1C)C(F)(F)F (stereo unspecified) 25.1 µM [inhibitor, partial curve]
CCc1nn(CC(=O)NCCc2ccc(Cl)cc2)c(=O)c2cccn12 15.8 µM [inhibitor, partial curve]
O=C(CCc1nnc(CCCCc2ccccc2)o1)NCc1cccc(F)c1 28.2 µM [inhibitor, partial curve]
O=S1(=O)c2ccccc2N=NN1Cc1ccc(Cl)cc1 39.8 µM [inhibitor, partial curve]
Cc1cc(C)cc(NC(=O)COc2ccc(C(=S)N3CCOCC3)cc2)c1 35.5 µM [inhibitor, partial curve]
Cc1nc(Nc2ccc3c(c2)OCCO3)c2nnn(Cc3ccccc3Cl)c2n1 3.55 µM [inhibitor, partial curve]
CC1(C(=O)Nc2ccc3c(c2)OCCO3)CC1(Cl)Cl (stereo unspecified) 25.1 µM [inhibitor, partial curve]
N#C/C(=C(\O)c1ccco1)c1ccccn1 39.8 µM [inhibitor, single point]
NC(=S)N/N=C/c1ccc(-c2ccc(Cl)c(Cl)c2)o1 15.8 µM [inhibitor, partial curve]
O=C1CSC(c2ccc(Cl)cc2)N1C1CCCCC1 (stereo unspecified) 28.2 µM [inhibitor, single point]
Cc1ccc(NC(=O)N2CCc3ccccc3C2)cc1C 10 µM [inhibitor, partial curve]
Cc1cc(Cl)ccc1OCC(=O)Nc1ccc(CN2CCOCC2)cc1 25.1 µM [inhibitor, partial curve]
C/C(=N\NC(=O)CNc1cccc(C(F)(F)F)c1)c1cccc(Br)c1 50.1 µM [inhibitor, single point]
CCc1ccccc1NC(=O)N1CC(CC)Oc2ccc(Cl)cc21 (stereo unspecified) 20 µM [inhibitor, partial curve]
Cc1cc(C)cc(OCC(=O)OCc2nnc(-c3ccccc3)o2)c1 28.2 µM [inhibitor, partial curve]
O=C(Nc1nnc(SCc2ccc(F)cc2)s1)C1CC(=O)N(Cc2ccccc2)C1 (stereo unspecified) 56.2 µM [inhibitor, single point]
CC(OC(=O)Cc1cccc(C(F)(F)F)c1)C(=O)Nc1ccc(Cl)cn1 (stereo unspecified) 31.6 µM [inhibitor, partial curve]
COc1ccc(C=C2C=C(C(C)(C)C)C(=O)C(C(C)(C)C)=C2)cc1OC 44.7 µM [inhibitor, single point]
CC(=O)c1c(C)[nH]c(C(=O)CN2C(=O)NC(C)(c3ccc4c(c3)OCO4)C2=O)c1C (stereo unspecified) 28.2 µM [inhibitor, single point]
Cc1ccc(-c2csc(N3CCN(c4cc5c(cc4Cl)nc(-c4ccncc4)n5CCOCCO)CC3)n2)cc1 50.1 µM [inhibitor, single point]
CC1Cc2ccccc2N1C(=O)CSc1nnnn1Cc1ccccc1 (stereo unspecified) 11.2 µM [inhibitor, single point]
O=c1cc(-c2ccccc2Cl)oc2c(NS(=O)(=O)c3ccccc3OC(F)(F)F)ccc(O)c12 31.6 µM [inhibitor, partial curve]
O=C1C2C3C=CC(CC3)C2C(=O)N1c1ccc(Cl)cc1 (stereo unspecified) 0.794 µM [inhibitor, partial curve, poor fit]
O=C(O)CC(Cc1ccc(Cl)cc1)C(=O)Nc1cc(Cl)ccc1Cl (stereo unspecified) 14.1 µM [inhibitor, partial curve, poor fit]
O=C(NC(C(=O)N/N=C/c1ccccc1)c1n[nH]c(=O)c2ccccc12)c1ccccc1 (stereo unspecified) 44.7 µM [inhibitor, partial curve, poor fit]
CC(C)(C)c1ccc(-n2ncc3c2CCCC3NC(=O)CCN2CCCO2)cc1 (stereo unspecified) 15.8 µM [inhibitor, partial curve]
CC(=O)Nc1ccc(N2C(C(C)=O)=NN(c3ccccc3)C2c2cccs2)cc1 (stereo unspecified) 31.6 µM [inhibitor, partial curve]
COc1ccccc1N1C(=O)C2CC=CC(C)C2C1=O (stereo unspecified) 17.8 µM [inhibitor, partial curve]
CSC1=NC2(CCCCC2)C2=C(CCCC2)N1 7.94 µM [inhibitor, partial curve]
CCCCCOc1ccc(/C=C/c2c([N+](=O)[O-])c(=O)n(C)c(=O)n2C)cc1 7.08 µM [inhibitor, full curve, poor fit]
CCOc1ccc(NC(=O)CSc2nnc3c(C)cc4ccccc4n23)cc1 7.08 µM [inhibitor, partial curve]
COc1ccccc1NC(=S)NC(=O)CCc1ccccc1 15.8 µM [inhibitor, partial curve]

Potency, inactive:
CCC(=O)N1CCc2cc(S(=O)(=O)NC(Cc3ccccc3)C(=O)Nc3ccc(Cl)cc3)ccc21 (stereo unspecified)
Cn1nnnc1SCC1=C(C(=O)O)N2C(=O)[C@@H](NC(=O)[C@H](O)c3ccccc3)[C@H]2SC1
Cc1nn(C)c(C)c1CCC(=O)N1CCCC(Nc2ccc(C(C)C)cc2)C1 (stereo unspecified)
CC(=O)Oc1cc(O)c2c(c1)OC(c1ccc(OC(C)=O)c(OC(C)=O)c1)C(OC(C)=O)C2=O (stereo unspecified)
CN1C(=O)c2ccccc2Sc2ccc(NC(=O)NCc3ccccc3Br)cc21
CCCn1c2ccccc2c2cnn(CC(=O)Nc3ccccc3OC)c(=O)c21
CCn1c(=O)cc(SCC(=O)N2CCN(c3ccccn3)CC2)c2ccccc21
COc1ccc(-c2c3c(=O)n(C)c(=O)n(C)c3c3n2-c2ccccc2NC3c2ccccc2OC)cc1 (stereo unspecified)
O=S(=O)(c1ccc(OCC(O)CN2CCN(c3ccccc3O)CC2)cc1)N1CCOCC1 (stereo unspecified)
